{"source": "PubChem BioAssay AID1345083", "about": "(National Center for Advancing Translational Sciences (NCATS), 2018)", "note": "Out of some 94,000 compounds screened, about 6,200 (6.6%) were called active. This list was built around the results that the source calls inconclusive (neither active nor inactive); the mix of calls is not that of the screen. Calls come from the whole dose curve; as a rule, active = well fitted inhibition curve with a large enough effect; inconclusive = small, poorly fitted or top-dose-only effect; inactive = flat fitted curve, though single readings scatter. Potencies of inconclusive entries are doubtful fits and often do not repeat. Potency is the fitted concentration of half-maximal effect; tags give direction and shape of the fitted curve.", "data": [{"experiment": "Cytotoxic Profiling in HEK 293 Cell Line of Diverse Libraries Using Quantitative High-Throughput Screening; note: nearly all actives have a fitted effect of over 60% in size", "settings": "HEK 293 viability, ATP luminescence (CellTiter-Glo), 48-72 h; series mostly up to 115 µM", "procedure,_shortened": "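Cytotoxicity was scored by loss of ATP-coupled luminescence (CellTiter-Glo) in HEK 293 cells. Compound treatment ran 48 or 72 hr at 37 degree Celsius, 5% CO2, 95% humidity.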", "values": [{"smiles": "Cn1cccc1C(=O)N1CCCCCCNC(=O)[C@@H]2CCC[C@@H]21", "Potency": "inconclusive: 39.8 µM [inhibitor, partial curve, poor fit]"}, {"smiles": "CCN1c2cc(C(=O)NCc3ccc(Cl)cc3)ccc2C(=O)N2CCCCC21", "note": "(stereo not given)", "Potency": "inconclusive: 79.4 µM [inhibitor, partial curve, poor fit]"}, {"smiles": "CCN(CC)c1ncccc1CNC(=O)c1coc2c1C(=O)CCC2", "Potency": "inconclusive: 56.2 µM [inhibitor, partial curve, poor fit]"}, {"smiles": "Cc1nc(CN2C[C@H](C(=O)NCc3ccc4c(c3)OCO4)C[C@@H]2c2ccc(F)cc2)cs1", "Potency": "inconclusive: 56.2 µM [inhibitor, partial curve, poor fit]"}, {"smiles": "COCCCNC(=O)C(NC(=O)c1ccc(OC)cc1)C1CCN(C(=O)c2cccc(OC)c2)CC1", "note": "(stereo not given)", "Potency": "inactive"}, {"smiles": "Cc1cc(CNC(=O)C2(C(N)=O)CC2)c2[nH]c(-c3ccccc3)c(C)c2c1", "Potency": "active: 22.4 µM"}, {"smiles": "COc1ccc(-n2nc(C3CCCN(C(=O)Cc4ccccn4)C3)[nH]c2=O)cc1", "note": "(stereo not given)", "Potency": "inactive"}, {"smiles": "C[S+](=O)([O-])N1CCC(Cn2ccc3c(N4CCOCC4)nc(-c4cccc(O)c4)cc32)CC1", "Potency": "inconclusive: 79.4 µM [inhibitor, partial curve]"}, {"smiles": "Cc1ccccc1N1CCN(C2CCCN(C/C=C/c3ccc(F)cc3)C2)CC1", "note": "(stereo not given)", "Potency": "inconclusive: 25.1 µM [inhibitor, full curve, poor fit]"}, {"smiles": "Cc1cc(C(=O)N2CCCCCCNC(=O)[C@@H]3C[C@@H](c4nc(Cc5ccccc5)no4)C[C@@H]32)nn1C", "Potency": "inactive"}, {"smiles": "O=C(NCc1ccccc1)[C@H]1CN(Cc2ccccc2)C[C@H]1C(=O)O", "Potency": "inactive"}, {"smiles": "COCC(=O)NC1CCC12CCN(C(=O)NC(C)C)CC2", "note": "(stereo not given)", "Potency": "inconclusive: 89.1 µM [inhibitor, single point]"}, {"smiles": "CCN1C(=O)C2(CCN(S(=O)(=O)c3ccc(C(C)C)cc3)CC2)c2ccccc21", "Potency": "inconclusive: 22.4 µM [inhibitor, full curve, poor fit]"}, {"smiles": "O=C(Nc1ccc(F)cc1)[C@@H]1C[C@@H](c2ccc(F)cc2)N([S+](=O)([O-])c2cccnc2)C1", "Potency": "inconclusive: 50.1 µM [inhibitor, partial curve, poor fit]"}, {"smiles": "CN(C)CC(=O)N1CC(F)(F)C[C@H]1c1nc(C2CC2)no1", "Potency": "inactive"}, {"smiles": "CC1=C[C@@H](CNC(=O)c2ccccc2)[C@H](C(C)C)C[C@H]1CC(=O)N1CCOCC1", "Potency": "inactive"}, {"smiles": "O=C(C1CCCN1C(=O)NC1CCCC1)N1CCC(N2Cc3ccccc3C2=O)CC1", "note": "(stereo not given)", "Potency": "inactive"}, {"smiles": "Cc1ccc(N2CC(c3noc(-c4cc(F)ccc4Cl)n3)CC2=O)cc1", "note": "(stereo not given)", "Potency": "inconclusive: 89.1 µM [inhibitor, single point]"}, {"smiles": "COc1cccc(-c2cccc(C(=O)N3CCN(C(=O)N(C)C)CC3)c2)c1", "Potency": "inconclusive: 56.2 µM [inhibitor, partial curve, poor fit]"}, {"smiles": "CCOC(=O)C1c2c(OC)ccc3c2C(=CC(C)(C)CO3)CN1C(C)=O", "note": "(stereo not given)", "Potency": "inconclusive: 56.2 µM [inhibitor, partial curve, poor fit]"}, {"smiles": "CCC1(CC)CCN(C(=O)CC2COc3ccc(C(=O)N(C)C)cc3N2C)C1", "note": "(stereo not given)", "Potency": "inconclusive: 35.5 µM [inhibitor, full curve, poor fit]"}, {"smiles": "CCSc1ncc(-c2c(-c3ccccc3)ncn2CC[C@@H](C)CO)cn1", "Potency": "inconclusive: 89.1 µM [inhibitor, single point]"}, {"smiles": "CC(C)CN[C@H]1CO[C@H]2[C@@H]1OC[C@@H]2Nc1nccc(C(C)(C)C)n1", "Potency": "inconclusive: 35.5 µM [inhibitor, partial curve, poor fit]"}, {"smiles": "O=C(CNC(=O)c1cccc(-c2ccsc2)c1)NCc1ccc(F)cc1", "Potency": "inactive"}, {"smiles": "COc1cc2c(cc1OC)C(CNC(=O)c1cccc(Cl)c1)N(C(=O)Nc1ccccc1)CC2", "note": "(stereo not given)", "Potency": "inconclusive: 39.8 µM [inhibitor, single point]"}, {"smiles": "COc1cccc(CN2CC[C@@](C)(O)[C@H](N3CCCC3)C2)c1OC", "Potency": "inactive"}, {"smiles": "CCn1ncc(NC(=O)Cn2ncc3cc(-c4ccc(C(=O)N(C)C)cc4)ccc32)n1", "Potency": "active: 44.7 µM"}, {"smiles": "O=C(NCCc1ccccc1)C1CCN(c2cn[nH]c(=O)c2)C1", "note": "(stereo not given)", "Potency": "inactive"}, {"smiles": "c1ccc2ncc(CN3CC[C@H](c4nc5ccccc5[nH]4)C3)cc2c1", "Potency": "active: 70.8 µM"}, {"smiles": "O=C(c1nnc(COc2ccc(F)cc2F)n1-c1ccccc1)N1CCC[C@@H]1c1cccc(F)c1", "Potency": "inconclusive: 50.1 µM [inhibitor, partial curve, poor fit]"}, {"smiles": "Cc1cnc(C(=O)N2CCOCC(CO)C2)cn1", "note": "(stereo not given)", "Potency": "inactive"}, {"smiles": "Cc1ccc(-c2nc(C(=O)N3CCN(Cc4ccc5c(c4)OCO5)CC3)no2)cc1", "Potency": "inconclusive: 89.1 µM [inhibitor, single point]"}, {"smiles": "Cc1ccc2c(c1)N1C(=O)OC[C@@H]1CCN(C(=O)c1cc(C)on1)C2", "Potency": "inactive"}, {"smiles": "CCOc1cc(C(=O)N2CCC(Cc3nc(-c4ccccc4)no3)CC2)cc(OCC)c1OCC", "Potency": "inconclusive: 50.1 µM [inhibitor, partial curve, poor fit]"}, {"smiles": "CN1CCN(C(=O)C2CCCCN2Cc2ccc(-c3cccs3)cc2)CC1", "note": "(stereo not given)", "Potency": "inconclusive: 35.5 µM [inhibitor, full curve]"}, {"smiles": "Cc1ccc(C(=O)N2CCC3(CC2)CCN(Cc2cccs2)c2ccccc2O3)cc1", "Potency": "inconclusive: 44.7 µM [inhibitor, partial curve, poor fit]"}, {"smiles": "C[C@@H]1CN(C2(C(=O)N[C@@H](C)C(N)=O)Cc3ccccc3C2)C[C@H](C)O1", "Potency": "inactive"}, {"smiles": "Oc1ccc(-c2nc(C3CC3)nc3c2CN(Cc2ccsc2)CC3)cc1", "Potency": "inconclusive: 56.2 µM [inhibitor, partial curve, poor fit]"}, {"smiles": "COc1ccc(CNC(=O)N2CCCC(Cc3noc(-c4cnccn4)n3)C2)cc1", "note": "(stereo not given)", "Potency": "inconclusive: 79.4 µM [inhibitor, single point]"}, {"smiles": "Cc1noc2c(Nc3ccc(Cl)cc3)cc(-c3cccnc3)nc12", "Potency": "inconclusive: 89.1 µM [inhibitor, partial curve, poor fit]"}, {"smiles": "Cc1cc(N2CCN(Cc3nc(-c4cccc(Cl)c4)no3)CC2)cc(C)n1", "Potency": "active: 39.8 µM"}, {"smiles": "Cc1ccncc1C(=O)N1CCCN(Cc2ccncc2)C(c2ccccc2)CC(=O)NCC1", "note": "(stereo not given)", "Potency": "inactive"}, {"smiles": "COc1ccc(C(=O)N[C@H]2CC[C@]3(C)CCC([C@H](C)C(=O)N4CCC(C)CC4)[C@H](O)[C@H]3[C@@H]2C)cc1", "note": "(stereo not given in full)", "Potency": "inactive"}, {"smiles": "COc1ccc(CN2C(=O)CO[C@H](c3ccc(NS(=O)(=O)c4ccc(F)cc4)cc3)[C@H]2CO)cc1", "Potency": "inactive"}, {"smiles": "COc1ccccc1C1CNC(=O)c2nc(-c3cc(C(C)(C)C)[nH]n3)[nH]c2C1", "note": "(stereo not given)", "Potency": "inconclusive: 79.4 µM [inhibitor, partial curve, poor fit]"}, {"smiles": "Cn1ccnc1CNC[C@H]1Cn2c(-c3ccccc3)cnc2CO1", "Potency": "inactive"}, {"smiles": "O=C(c1ccc(C(F)(F)F)cc1)N1CC2(Cc3ccccc3NC2=O)C1", "Potency": "inconclusive: 100 µM [inhibitor, partial curve, poor fit]"}, {"smiles": "CNC(=O)c1cc(C)nc2onc(C3CCN(C(=O)c4cccc(Cl)c4)C3)c12", "note": "(stereo not given)", "Potency": "inactive"}, {"smiles": "O=C(CNC(=O)c1ccc(-c2cnc3ccccc3c2)cc1)NCCCc1ccccc1", "Potency": "inconclusive: 79.4 µM [inhibitor, partial curve]"}, {"smiles": "CCC(=O)N1CCC(=O)N(CCC#N)C[C@H]2COc3ccccc3[C@H]21", "Potency": "inconclusive: 89.1 µM [inhibitor, partial curve, poor fit]"}, {"smiles": "CCC(=O)N1CCN(c2nc3c(s2)CC(C(=O)NCc2cccs2)CC3)CC1", "note": "(stereo not given)", "Potency": "inconclusive: 100 µM [inhibitor, single point]"}, {"smiles": "Cc1noc(-c2cn(C3CCCN(C(=O)c4ccc(Cl)s4)C3)nn2)n1", "note": "(stereo not given)", "Potency": "inactive"}, {"smiles": "O=C(Cn1ccn2nc(-c3ccc(F)cc3)c(CO)c2c1=O)Nc1cccc(Cl)c1", "Potency": "inconclusive: 56.2 µM [inhibitor, partial curve, poor fit]"}, {"smiles": "CNC(=O)c1nc2cccnc2n(-c2ccc(OC)cc2)c1=O", "Potency": "inactive"}, {"smiles": "O=C(Cc1ccccc1Cl)N1CC(c2nnc(-c3ccncc3)o2)C2(CCOCC2)C1", "note": "(stereo not given)", "Potency": "inactive"}, {"smiles": "O=C(N[C@@H]1CN(Cc2cccnc2)C[C@H]1CO)c1cccnc1", "Potency": "inactive"}, {"smiles": "Cc1ccc(F)cc1-c1ccc(COc2ccc3c(cnn3CCC(=O)O)c2)cc1", "Potency": "inconclusive: 100 µM [inhibitor, partial curve]"}, {"smiles": "COc1cccc(-c2ccc(C(=O)N3CCC(N[S+](=O)([O-])c4cccs4)CC3)cc2)c1", "Potency": "active: 17.8 µM"}, {"smiles": "O=C(NCCc1ccccc1)N1CCC(c2noc(-c3ccncc3)n2)C1", "note": "(stereo not given)", "Potency": "inconclusive: 28.2 µM [inhibitor, partial curve, poor fit]"}, {"smiles": "Cc1nc2n(c1C(=O)NCC1CC1)CCC(Nc1ccc(F)cc1)C2", "note": "(stereo not given)", "Potency": "inconclusive: 89.1 µM [inhibitor, partial curve]"}, {"smiles": "CN(C)CC(=O)Nc1ccc(OC2CCN(C(=O)c3ccc(F)cc3)CC2)nc1", "Potency": "inactive"}, {"smiles": "CN1CC(=O)N(C2CCC2)Cc2c(NC3CCCCC3)ncnc21", "Potency": "inconclusive: 112 µM [inhibitor, partial curve, poor fit]"}, {"smiles": "COc1ccccc1CN[C@H]1CC(C)(C)[C@@H]2C[C@@](C)(O)CC[C@]12CCC(=O)NCCc1c[nH]c2ccccc12", "Potency": "active: 28.2 µM"}, {"smiles": "Cc1cc(C(=O)N2CCCCCC2c2nnc(-c3ccccc3)o2)n(C)n1", "note": "(stereo not given)", "Potency": "inconclusive: 89.1 µM [inhibitor, single point]"}, {"smiles": "COc1ccc(-c2cc(N3CCCC(NC(=O)c4ccc(F)c(F)c4)C3)n[nH]2)cc1", "note": "(stereo not given)", "Potency": "inconclusive: 44.7 µM [inhibitor, partial curve, poor fit]"}]}]}
